Test results reported in PubChem BioAssay (Tox21).
Inconclusive results, whose numbers are uncertain, are shown with a selection of clear calls. For part of these data: Potencies beside an inconclusive call are fits to weak or partial responses and may not hold up. Activity calls are given as the source filed them. Unless noted, calls follow the shape of the dose curve; as a rule, active = well fitted curve in the direction sought with a large enough effect in the repeat runs; inconclusive = weak or mixed curves; inactive = no such curve, though single readings can be large; an effect the other way counts as inactive or inconclusive.

Key:
[1] = qHTS assay for identifying genotoxic compounds that show differential cytotoxicity against isogenic chicken DT40 cell lines with known DNA damage response pathways - Rev3 mutant cell line (AID 743014); conditions: chicken DT40 Rev3-/- viability, CellTiter-Glo, 40 h; activity, negative = cytotoxicity: at 68.4 µM (top of the series); also: nearly all actives have a fitted effect of over 55% in size; also: potency is read from the fitted curve at half-maximal effect
[2] = qHTS assay to identify small molecule antagonists of the peroxisome proliferator-activated receptor delta (PPARd) signaling pathway - cell viability counter screen (AID 743213); conditions: PPARd-bla HEK293H viability, CellTiter-Glo luminescence, 17 h; viability change, negative = cytotoxic: at 62 µM (top of the series) unless noted; also: nearly all actives have a fitted effect of over 50% in size; also: potency is read from the fitted curve at half-maximal effect
Method in brief: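 CellTiter-Glo was added to PPARd-bla HEK293H wells following 17 h compound treatment in the presence of 300 nM L165041. Luminescence was recorded after 30 min at room temperature.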

[3] = target: Retinoic acid receptor RXR-alpha (Homo sapiens) (UniProt P19793); experiment: qHTS assay to identify small molecule agonists of the RXR signaling pathway (AID 1159527; calls by dose curve; also: nearly all actives have a fitted effect of over 35% in size; also: potency is read from the fitted curve at half-maximal effect); conditions: HEK293T RXRa-UAS-bla, beta-lactamase ratio, 16 h; activation: at 76.8 µM (top of the series) unless noted
Method in brief: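 Fluorescence ratio readout (460 vs 530 nm) from GeneBLAzer RXR-alpha HEK 293T cells after 16 hr compound treatment; cells seeded 5 hr beforehand in low-serum, charcoal-stripped medium.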

[4] = qHTS assay to identify small molecule antagonists of the sonic hedgehog signaling (Shh) pathway (AID 1259369; calls by dose curve; also: potency is read from the fitted curve at half-maximal effect; nearly all actives have a fitted effect of over 45% in size)
Method in brief: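 Read-out is luminescence from a firefly luciferase gene controlled by the Gli1 response element, in 3T3Gli1-Luc cells pre-incubated 4hr then exposed to compounds and conditioned medium for 24hr.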

[5] = target: Estrogen receptor beta (Homo sapiens) (UniProt Q92731); experiment: qHTS assay to identify small molecule antagonists of the estrogen receptor beta (ER-beta) signaling pathway (AID 1259378; active = well fitted inhibition curve with a large enough effect in the signal ratio in the repeat runs, not every such curve was filed as active; inconclusive = weak or mixed curves, or effect the other way; inactive = no such curve, though single readings can be large or run the other way; the % refers to the signal ratio; also: potency is read from the fitted curve at half-maximal effect); conditions: ER-beta-UAS-bla HEK293T, beta-lactamase FRET ratio, 16 h; activity, negative = inhibition: at 92.4 µM (top of the series) unless noted
Method in brief: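 ER-beta-UAS-bla HEK293T (GripTite) cells in 2% charcoal-stripped FBS medium were preincubated 6 hr at 37C, dosed with compound, then stimulated with 1 nM E2 (final) for 16 hr; beta-lactamase reporter read by B/G FRET fluorescence after 2 hr substrate loading.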

[6] = target: Cytochrome P450 2C19 (Homo sapiens) (UniProt P33261); experiment: Cytochrome P450 Family 2 Subfamily C Member 19 (CYP2C19) small molecule antagonists: luciferase reporter qHTS assay (AID 1671197); also: potency is read from the fitted curve at half-maximal effect; nearly all actives have a fitted effect of over 65% in size
Method in brief: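 P450-Glo CYP2C19 screening system; proluciferin substrate; DMSO compound stocks; 10 min RT preincubation; NADPH regeneration, 1 h at 37C; luciferin detection reagent, 20 min RT; luminescence as RLU.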

[7] = qHTS assay to identify small molecule antagonists of the thyroid receptor (TR) signaling pathway - cell viability counter screen (AID 743064); conditions: GH3.TRE-Luc viability, CellTiter-Fluor, 24 h; activity change, negative = cytotoxic: at 70.3 µM (top of the series) unless noted; also: nearly all actives have a fitted effect of over 50% in size; also: potency is read from the fitted curve at half-maximal effect
Method in brief: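 Counter screen for cytotoxicity: compound plus T3 (1 nM final) on GH3.TRE-Luc cells, 23.5 h at 37 °C, then fluorescence viability readout with CellTiter-Fluor.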

[8] = qHTS assay for small molecule agonists of the antioxidant response element (ARE) signaling pathway (AID 743202; active = well fitted activation curve with a large enough effect in the signal ratio in the repeat runs, not every such curve was filed as active; inconclusive = weak or mixed curves, or effect the other way; inactive = no such curve, though single readings can be large or run the other way; the % refers to the signal ratio; also: % is scaled to controls: 0 for no effect and ±100 for the full control effect); conditions: HepG2 ARE-bla reporter, beta-lactamase FRET, 16 h; activation: at 73.3 µM (top of the series) unless noted
Method in brief: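 Following a 16 h, 37 C exposure of reporter HepG2 cells (ARE-driven beta-lactamase, 2,000 cells/well) to compounds, FRET substrate was applied for 2 h at room temperature and fluorescence intensity recorded.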

[9] = qHTS assay to identify small molecule agonists of the farnesoid-X-receptor (FXR) signaling pathway - cell viability counter screen (AID 743218); conditions: FXR-bla HEK293T viability, CellTiter-Glo luminescence, 16 h; viability change, negative = cytotoxic: at 62.6 µM (top of the series); also: nearly all actives have a fitted effect of over 45% in size; also: potency is read from the fitted curve at half-maximal effect
Method in brief: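 Quantitative HTS counter screen measuring ATP-based viability via CellTiter-Glo luminescence in HEK 293T cells carrying a UAS-driven beta-lactamase reporter, after 16 h compound exposure at 37 C.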

[10] = target: Vitamin D3 receptor (Homo sapiens) (UniProt P11473); experiment: qHTS assay to identify small molecule antagonists of the vitamin D receptor (VDR) signaling pathway (AID 743223; active = well fitted inhibition curve with a large enough effect in the signal ratio in the repeat runs, not every such curve was filed as active; inconclusive = weak or mixed curves, or effect the other way; inactive = no such curve, though single readings can be large or run the other way; the % refers to the signal ratio; also: % is scaled to controls: 0 for no effect and ±100 for the full control effect); conditions: VDR-UAS-bla HEK293T, beta-lactamase FRET ratio, 16 h; activity change, negative = inhibition: at 61 µM (top of the series) unless noted
Method in brief: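 Beta-lactamase activity in VDR-bla cells is measured by FRET substrate fluorescence (2 h, room temperature) after cells spend 16 h at 37C with test compound and 3 nM final 1alpha,25-dihydroxyvitamin D3.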

[11] = qHTS assay for small molecule disruptors of the mitochondrial membrane potential (AID 720635); conditions: HepG2 mitochondrial membrane potential, Mito-MPS dye ratio; for Potency: ratio activity, negative = MMP loss: at 83.2 µM (top of the series) unless noted; also: potency is read from the fitted curve at half-maximal effect
Method in brief: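 HepG2 cells (2,000/well) attached overnight at 37C, then took compound for 1 hr at 37C, 5% CO2. Mito-MPS dye was added for 30 min; fluorescence was read at 490/535 nm (monomers) and 540/590 nm (aggregates).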

[12] = target: Glucocorticoid receptor (Homo sapiens) (UniProt P04150); experiment: qHTS assay to identify small molecule antagonists of the glucocorticoid receptor (GR) signaling pathway (AID 720692; active = well fitted inhibition curve with a large enough effect in the signal ratio in the repeat runs, not every such curve was filed as active; inconclusive = weak or mixed curves, or effect the other way; inactive = no such curve, though single readings can be large or run the other way; the % refers to the signal ratio; also: % is scaled to controls: 0 for no effect and ±100 for the full control effect); conditions: GR-bla HeLa, beta-lactamase FRET ratio, dexamethasone-stimulated, 18 h; activity change, negative = inhibition: at 58.5 µM (top of the series) unless noted
Method in brief: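 In a 1536-well cell format, compounds were added 4 h after seeding GR-bla HeLa cells, together with dexamethasone at 5 nM final; reporter activity was measured by FRET-substrate fluorescence following 18 h at 37 C.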

[13] = target: Cytochrome P450 2D6 (Homo sapiens) (UniProt P10635); experiment: Cytochrome P450 Family 2 Subfamily D Member 6 (CYP2D6) small molecule antagonists: luciferase reporter qHTS assay (AID 1671196); also: potency is read from the fitted curve at half-maximal effect; nearly all actives have a fitted effect of over 50% in size
Method in brief: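 Room-temperature luminescent CYP2D6 activity assay: compound preincubated 10 min with enzyme–substrate mix, NADPH-initiated reaction 1 h, detection reagent 20 min before reading.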

[14] = target: Cytochrome P450 2C9 (Homo sapiens) (UniProt P11712); experiment: Cytochrome P450 Family 2 Subfamily C Member 9 (CYP2C9) small molecule antagonists: luciferase reporter qHTS assay (AID 1671198); also: potency is read from the fitted curve at half-maximal effect; nearly all actives have a fitted effect of over 50% in size
Method in brief: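 CYP2C9 activity was measured with a P450-Glo proluciferin substrate. Enzyme–substrate mix was held with compound for 10 min at room temperature, then NADPH regeneration solution was added for 1 h at 37C. Luciferin product was read as luminescence.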

[15] = target: Peroxisome proliferator-activated receptor gamma (Homo sapiens) (UniProt P37231); experiment: qHTS assay to identify small molecule antagonists of the peroxisome proliferator-activated receptor gamma (PPARg) signaling pathway (AID 743191; calls by dose curve; also: % is scaled to controls: 0 for no effect and ±100 for the full control effect; nearly all actives have a fitted effect of over 30% in size); conditions: HEK293H PPARg-UAS-bla, beta-lactamase ratio, antagonist, 17 h; ratio activity, negative = inhibition: at 62.6 µM (top of the series) unless noted
Method in brief: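 GeneBLAzer PPARg UAS-bla HEK293H cells carrying a UAS-driven beta-lactamase reporter were plated at 3000 cells/well, preincubated 5 h at 37C, then given compound for 17 h at 37C; LiveBLAzer B/G FRET substrate was read after 1 h at room temperature.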

[16] = target: Progesterone receptor (Homo sapiens) (UniProt P06401); experiment: qHTS assay to identify small molecule antagonists of the progesterone receptor (PR) signaling pathway (AID 1346795; active = well fitted inhibition curve with a large enough effect in the signal ratio in the repeat runs, not every such curve was filed as active; inconclusive = weak or mixed curves; the % refers to the signal ratio; also: % is scaled to controls: 0 for no effect and ±100 for the full control effect); conditions: PR-UAS-bla HEK293T, beta-lactamase FRET ratio, 16 h; activity change, negative = inhibition: at 92.4 µM (top of the series) unless noted
Method in brief: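 Inhibition of R5020-induced (1 nM final) beta-lactamase reporter signal in PR-UAS-bla HEK293T cells was scored by FRET fluorescence after overnight (16 hr) compound treatment.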

[17] = target: Cytochrome P450 1A2 (Homo sapiens) (UniProt P05177); experiment: Cytochrome P450 Family 1 Subfamily A Member 2 (CYP1A2) small molecule antagonists: luciferase reporter qHTS assay (AID 1671199)
Method in brief: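 Room-temperature CYP1A2 reaction with proluciferin substrate: compounds added from DMSO, 10 min preincubation, NADPH regeneration for 1 h. Luciferin detection reagent then added; luminescence recorded as RLU.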

[18] = qHTS assay to identify small molecule antagonists of the progesterone receptor (PR) signaling pathway - cell viability counter screen (AID 1346798)
Method in brief: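 ATP content as viability readout: CellTiter-Glo luminescence, 30 min room temperature, in PR-UAS-bla HEK293T cells after 16 hr compound/R5020 treatment at 37C and 5% CO2.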

[19] = qHTS assay to identify small molecule agonists of the progesterone receptor (PR) signaling pathway - cell viability counter screen (AID 1346799; calls by dose curve; also: potency is read from the fitted curve at half-maximal effect; nearly all actives have a fitted effect of over 45% in size)
Method in brief: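 Cytotoxicity in PR-bla HEK293T cells: 16 h compound, 37C; CellTiter-Glo added post-FRET read; luminescence after 30 min RT.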
Tags tell the direction and shape of the fitted curve or compound fluorescence and quenching.

Chain of UniProt P37231 (P37231 whole entry, looked up): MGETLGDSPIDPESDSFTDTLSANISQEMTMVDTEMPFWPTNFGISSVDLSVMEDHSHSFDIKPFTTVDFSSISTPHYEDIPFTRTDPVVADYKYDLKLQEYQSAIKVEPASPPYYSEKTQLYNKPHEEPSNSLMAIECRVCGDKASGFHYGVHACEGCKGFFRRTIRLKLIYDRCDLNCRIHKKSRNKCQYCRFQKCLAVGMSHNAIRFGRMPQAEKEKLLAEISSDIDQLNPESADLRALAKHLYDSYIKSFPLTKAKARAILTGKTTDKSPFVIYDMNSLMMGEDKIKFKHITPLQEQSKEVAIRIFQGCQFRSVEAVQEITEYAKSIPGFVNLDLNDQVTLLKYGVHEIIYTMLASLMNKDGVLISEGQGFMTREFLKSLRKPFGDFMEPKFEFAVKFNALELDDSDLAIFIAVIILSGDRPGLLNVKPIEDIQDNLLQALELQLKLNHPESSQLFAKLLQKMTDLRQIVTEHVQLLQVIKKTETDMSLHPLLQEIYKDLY
Chain of UniProt Q92731 (Q92731 whole entry, looked up): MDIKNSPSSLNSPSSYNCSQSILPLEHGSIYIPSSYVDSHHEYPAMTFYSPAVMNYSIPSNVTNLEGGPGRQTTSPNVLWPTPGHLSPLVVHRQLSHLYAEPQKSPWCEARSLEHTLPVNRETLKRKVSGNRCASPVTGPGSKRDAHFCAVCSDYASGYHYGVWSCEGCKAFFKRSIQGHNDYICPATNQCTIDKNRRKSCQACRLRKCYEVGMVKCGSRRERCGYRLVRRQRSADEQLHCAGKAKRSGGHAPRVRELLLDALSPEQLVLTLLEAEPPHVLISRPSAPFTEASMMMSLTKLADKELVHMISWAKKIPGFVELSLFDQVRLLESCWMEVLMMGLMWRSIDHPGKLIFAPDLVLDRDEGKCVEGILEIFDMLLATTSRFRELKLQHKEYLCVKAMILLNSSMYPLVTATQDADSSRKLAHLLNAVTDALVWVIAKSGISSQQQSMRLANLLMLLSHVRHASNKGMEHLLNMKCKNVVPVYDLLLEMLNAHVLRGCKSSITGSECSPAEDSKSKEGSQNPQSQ
Chain of UniProt P19793 (P19793 whole entry, looked up): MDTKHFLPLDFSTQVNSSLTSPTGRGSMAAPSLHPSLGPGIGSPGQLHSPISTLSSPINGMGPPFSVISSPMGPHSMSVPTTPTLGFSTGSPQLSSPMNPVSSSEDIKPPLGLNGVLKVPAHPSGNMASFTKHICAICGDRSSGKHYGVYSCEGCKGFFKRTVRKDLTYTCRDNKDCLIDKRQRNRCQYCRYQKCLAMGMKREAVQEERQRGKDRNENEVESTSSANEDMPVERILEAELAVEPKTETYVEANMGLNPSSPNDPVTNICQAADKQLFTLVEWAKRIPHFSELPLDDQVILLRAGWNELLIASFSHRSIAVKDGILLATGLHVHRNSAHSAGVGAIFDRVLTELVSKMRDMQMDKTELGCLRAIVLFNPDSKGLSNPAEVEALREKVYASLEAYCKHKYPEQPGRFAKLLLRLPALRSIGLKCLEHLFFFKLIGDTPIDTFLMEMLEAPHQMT
Chain of UniProt P05177 (P05177 whole entry, looked up): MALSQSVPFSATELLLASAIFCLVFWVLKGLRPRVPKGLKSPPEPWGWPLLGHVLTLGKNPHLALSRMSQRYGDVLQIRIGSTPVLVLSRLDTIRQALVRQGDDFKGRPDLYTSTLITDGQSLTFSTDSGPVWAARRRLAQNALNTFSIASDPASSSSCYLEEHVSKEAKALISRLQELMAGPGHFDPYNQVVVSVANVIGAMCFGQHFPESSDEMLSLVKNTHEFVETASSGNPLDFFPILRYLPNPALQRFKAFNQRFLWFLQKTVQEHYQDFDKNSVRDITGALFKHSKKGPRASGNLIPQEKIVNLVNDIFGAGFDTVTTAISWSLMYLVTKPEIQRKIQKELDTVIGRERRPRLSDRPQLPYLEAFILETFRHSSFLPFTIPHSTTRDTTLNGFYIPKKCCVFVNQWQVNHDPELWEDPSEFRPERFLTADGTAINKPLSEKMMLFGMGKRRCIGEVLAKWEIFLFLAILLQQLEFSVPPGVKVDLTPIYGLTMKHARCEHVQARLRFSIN
Chain of UniProt P10635 (P10635 whole entry, looked up): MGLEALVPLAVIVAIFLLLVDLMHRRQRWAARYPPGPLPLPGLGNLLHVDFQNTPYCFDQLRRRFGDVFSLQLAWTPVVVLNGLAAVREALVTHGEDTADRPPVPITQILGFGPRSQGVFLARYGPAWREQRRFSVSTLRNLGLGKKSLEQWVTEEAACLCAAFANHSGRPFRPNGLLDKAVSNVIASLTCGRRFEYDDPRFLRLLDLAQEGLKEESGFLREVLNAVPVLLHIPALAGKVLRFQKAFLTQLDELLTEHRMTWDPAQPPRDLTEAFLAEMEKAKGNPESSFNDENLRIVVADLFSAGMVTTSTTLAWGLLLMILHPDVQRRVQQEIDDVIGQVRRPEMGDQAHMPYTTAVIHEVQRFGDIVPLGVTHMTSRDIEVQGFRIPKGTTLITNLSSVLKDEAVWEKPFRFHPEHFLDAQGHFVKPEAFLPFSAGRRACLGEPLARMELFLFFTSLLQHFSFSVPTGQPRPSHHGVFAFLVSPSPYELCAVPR
Chain of UniProt P33261 (P33261 whole entry, looked up): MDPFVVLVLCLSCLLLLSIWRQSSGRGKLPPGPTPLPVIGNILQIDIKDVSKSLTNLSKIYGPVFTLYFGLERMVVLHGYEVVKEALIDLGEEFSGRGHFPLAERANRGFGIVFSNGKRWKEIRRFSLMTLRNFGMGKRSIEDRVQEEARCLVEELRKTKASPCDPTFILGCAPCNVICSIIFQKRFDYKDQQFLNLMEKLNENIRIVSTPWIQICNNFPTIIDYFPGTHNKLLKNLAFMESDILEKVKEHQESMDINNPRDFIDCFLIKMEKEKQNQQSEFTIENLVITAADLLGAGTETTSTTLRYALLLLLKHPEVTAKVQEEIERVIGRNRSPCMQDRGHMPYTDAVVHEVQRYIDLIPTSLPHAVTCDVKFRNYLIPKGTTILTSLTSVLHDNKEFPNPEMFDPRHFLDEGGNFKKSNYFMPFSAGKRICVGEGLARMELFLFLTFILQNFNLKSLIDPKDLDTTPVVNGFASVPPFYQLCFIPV
Chain of UniProt P06401 (P06401 whole entry, looked up): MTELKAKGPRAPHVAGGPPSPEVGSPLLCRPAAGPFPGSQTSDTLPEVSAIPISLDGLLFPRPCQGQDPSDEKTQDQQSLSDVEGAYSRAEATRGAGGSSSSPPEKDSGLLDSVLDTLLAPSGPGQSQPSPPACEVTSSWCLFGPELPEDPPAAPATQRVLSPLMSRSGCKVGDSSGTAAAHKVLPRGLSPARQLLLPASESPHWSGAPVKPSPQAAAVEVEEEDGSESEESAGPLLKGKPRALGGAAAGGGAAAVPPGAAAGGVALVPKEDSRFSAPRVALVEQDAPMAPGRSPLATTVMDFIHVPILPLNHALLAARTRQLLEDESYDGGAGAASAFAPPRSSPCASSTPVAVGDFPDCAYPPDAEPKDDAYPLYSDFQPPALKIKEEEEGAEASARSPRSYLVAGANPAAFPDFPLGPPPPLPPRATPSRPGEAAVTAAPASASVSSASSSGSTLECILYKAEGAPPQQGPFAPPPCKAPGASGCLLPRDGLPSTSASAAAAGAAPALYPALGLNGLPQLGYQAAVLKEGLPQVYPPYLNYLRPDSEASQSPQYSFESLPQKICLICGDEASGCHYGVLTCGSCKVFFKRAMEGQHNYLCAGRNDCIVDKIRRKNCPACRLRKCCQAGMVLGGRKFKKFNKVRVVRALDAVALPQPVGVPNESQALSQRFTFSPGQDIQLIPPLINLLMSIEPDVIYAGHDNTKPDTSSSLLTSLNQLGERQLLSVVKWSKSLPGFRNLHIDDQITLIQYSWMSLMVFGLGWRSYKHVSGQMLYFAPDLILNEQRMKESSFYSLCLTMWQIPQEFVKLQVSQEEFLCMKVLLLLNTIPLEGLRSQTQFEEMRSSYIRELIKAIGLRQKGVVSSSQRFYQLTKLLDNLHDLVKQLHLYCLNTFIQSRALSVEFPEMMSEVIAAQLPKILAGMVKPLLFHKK
Chain of UniProt P11473 (P11473 whole entry, looked up): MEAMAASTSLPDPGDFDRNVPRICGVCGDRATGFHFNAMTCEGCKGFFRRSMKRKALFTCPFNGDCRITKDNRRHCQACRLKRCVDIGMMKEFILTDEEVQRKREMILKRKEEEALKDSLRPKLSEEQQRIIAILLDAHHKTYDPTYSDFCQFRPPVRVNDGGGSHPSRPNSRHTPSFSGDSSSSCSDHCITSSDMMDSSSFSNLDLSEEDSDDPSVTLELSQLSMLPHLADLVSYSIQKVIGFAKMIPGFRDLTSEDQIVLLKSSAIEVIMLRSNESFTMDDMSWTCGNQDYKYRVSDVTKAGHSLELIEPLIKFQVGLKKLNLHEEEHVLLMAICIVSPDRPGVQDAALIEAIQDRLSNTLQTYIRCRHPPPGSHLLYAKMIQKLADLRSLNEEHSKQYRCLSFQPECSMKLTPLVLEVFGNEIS
Chain of UniProt P11712 (P11712 whole entry, looked up): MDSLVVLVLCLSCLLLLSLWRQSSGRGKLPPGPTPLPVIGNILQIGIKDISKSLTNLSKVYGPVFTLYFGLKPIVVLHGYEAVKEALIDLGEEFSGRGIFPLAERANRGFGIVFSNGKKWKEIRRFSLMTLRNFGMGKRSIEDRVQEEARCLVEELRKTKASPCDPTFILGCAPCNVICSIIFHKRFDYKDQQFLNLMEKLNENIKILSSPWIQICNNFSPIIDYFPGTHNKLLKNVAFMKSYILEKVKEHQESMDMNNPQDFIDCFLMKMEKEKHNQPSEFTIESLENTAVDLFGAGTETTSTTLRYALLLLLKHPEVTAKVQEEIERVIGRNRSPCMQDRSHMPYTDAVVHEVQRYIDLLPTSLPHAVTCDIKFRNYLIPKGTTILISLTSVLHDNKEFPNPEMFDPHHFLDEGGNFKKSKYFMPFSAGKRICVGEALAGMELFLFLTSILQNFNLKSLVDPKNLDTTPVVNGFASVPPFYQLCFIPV

For `CCNc1nc(NCC)nc(SC)n1`, the Potency [1] was inconclusive: 68.6 µM [cytotoxic, single point], the viability change, negative = cytotoxic [2] was inconclusive: 4.48% [cytotoxic] and the Potency [3] was “inactive”. The Potency [4] was inconclusive: 3.44 µM [inhibitor, full curve], the Potency [5] was “inactive” and the Potency [6] was inconclusive: 89.4 µM [inhibitor, single point].
With `CNC(=O)/C=C(\C)OP(=O)(OC)OC` the Potency [7] was inconclusive: 27.3 µM [rising, single point], the Potency [8] was “inactive” and the Potency [9] was inconclusive: 0.0219 µM [rising, full curve, poor fit]. The Potency [10] was “inactive” and the activation [3] was inconclusive: -8.16%.
For `CC(C)CC#N`, the Potency [11] was “inactive”, the Potency [12] was “inactive” and the Potency [1] was “inactive”. For the same compound, the Potency [8] was “inactive”, the Potency [2] was inconclusive: 0.0178 µM [cytotoxic, full curve, poor fit] and the Potency [9] was “inactive”. The Potency [10] was “inactive”, the Potency [3] was inconclusive: 25.1 µM [activator, partial curve] and the Potency [5] was inconclusive: 78.8 µM [activator, single point]. The Potency [13] was inconclusive: 64.8 µM [inhibitor, partial curve, poor fit] and the Potency [14] was inconclusive: 28.9 µM [inhibitor, partial curve].
In the case of `CN(C)c1nc(=O)n(C2CCCCC2)c(=O)n1C`, the Potency [11] is reported as inconclusive: 48.5 µM [activator, partial curve, poor fit], the Potency [7] is reported as “inactive” and the Potency [15] is reported as “inactive”. For the same compound, the Potency [8] was “inactive”, the activation [3] was inconclusive: 25.5% and the Potency [4] was inconclusive: 18.3 µM [inhibitor, full curve]. The Potency [5] was “inactive”, the Potency [16] was “inactive” and the Potency [14] was inconclusive: 107 µM [inhibitor, partial curve, poor fit]. The Potency [17] was inconclusive: 67.3 µM [inhibitor, partial curve].
In the case of `CC(=O)C1CCOC1=O` (stereo not drawn), the Potency [11] is reported as “inactive”, the Potency [1] is reported as inconclusive: 63.7 µM [cytotoxic, partial curve, poor fit] and the ratio activity, negative = inhibition [15] is reported as inconclusive: -0.38%. For the same compound, the Potency [8] was “inactive”, the Potency [3] was “inactive” and the activity, negative = inhibition [5] was inconclusive: 12.5% [at 42.5 µM]. The Potency [18] was “inactive”, the Potency [19] was inconclusive: 56.8 µM [cytotoxic, partial curve] and the Potency [6] was inconclusive: 83 µM [inhibitor, single point]. For the same compound, the Potency [17] was inconclusive: 41.6 µM [inhibitor, partial curve].
In the case of `CCC1(c2ccccc2)C(=O)NC(=O)NC1=O`, the ratio activity, negative = MMP loss ([11]; at 83.2 µM (top of the series)) is reported as inconclusive: 11.5%, the ratio activity, negative = MMP loss ([11]; at 95.3 µM (top of the series)) is reported as inconclusive: -7.7% and the Potency [8] is reported as “inactive”. The Potency [3] was “inactive”, the Potency [13] was active: 11.5 µM and the Potency [17] was inconclusive: 64.7 µM [inhibitor, partial curve].
